Source: PubChem BioAssay AID1671194 (National Center for Advancing Translational Sciences (NCATS), 2021)
About 240 (0.17%) of roughly 140,000 compounds were called active. This list was built around the results that the source calls inconclusive (neither active nor inactive); the mix of calls is not that of the screen. Calls follow the shape of the dose curve; as a rule, active = well fitted inhibition curve with a large enough effect; inconclusive = small, poorly fitted or top-dose-only effect; inactive = no such curve, though single readings can be large or run the other way. A potency beside an inconclusive call is a rough fit, not a confirmed value.

test: Primary qHTS assay for inhibitors of alpha-synuclein gene (SNCA) expression; details: HEK-293 SNCA-luciferase knock-in, luminescence, 24 h; series mostly up to 57.2 µM; also: nearly all actives have a fitted effect of over 45% in size
Potency is read from the fitted curve at half-maximal effect; tags tell the direction and shape of the fitted curve.

Potency, inactive:
COc1ccc(OC)c2nc(-c3cccc(Cl)c3)c(CN3CCCC(O)C3)cc12 (stereo not given)
OCC1(CN2CCCC2)CCN(Cc2c(Cl)cccc2Cl)CC1
Cc1noc(-c2cccs2)c1C(=O)N1CCC(Cc2ccccc2)CC1
CC(=O)Nc1ccc(NC(=O)c2c(C)oc3ccn(Cc4ccc(F)cc4)c(=O)c23)cc1
Cc1ccccc1Cn1cc(-c2ccncc2)cc1C(=O)N1CCCC1
COc1ccccc1N1CCN(C(=O)c2cc3c(=O)n(Cc4cccs4)ccc3nc2C)CC1
COc1ccc(CNC(=O)C(=O)NCC(c2ccco2)S(=O)(=O)c2ccc(Cl)cc2)cc1 (stereo not given)
COc1ccc(CNC(=O)C2CCN(c3nccc(Nc4ccccc4Cl)n3)CC2)cc1
Cc1ccc2c(C(=O)NCCc3cccnc3)cc(NC(=O)C(C)C)cc2n1
O=C(c1cc2n(n1)CC(c1ccc(Cl)cc1)OC2)N1CCCCC1 (stereo not given)

Potency, inconclusive:
CCCNC(=O)c1ccc2c(c1)N=C(CCC)c1ccccc1S2 39.8 µM [inhibitor, single point]
CN(C)CCNC(=O)c1ccc2c(c1)C1(CCN(CC3CC3)C1)CN2Cc1ccccc1 (stereo not given) 12.6 µM [inhibitor, single point]
CNC(=O)CCn1ncc2cc(OC3CCc4cccc(-c5cnn(C)c5)c43)ccc21 (stereo not given) 22.4 µM [inhibitor, partial curve, poor fit]
CC(CCc1ccccc1)NC(=O)CSc1n[nH]c(-c2ccccc2)n1 (stereo not given) 39.8 µM [inhibitor, single point]
Cc1nn(C(C)C(=O)NCc2ccc(OC(C)C)cc2)c(=O)c2c1sc1ccccc12 (stereo not given) 39.8 µM [inhibitor, single point]
O=C(Nc1ccc(Cl)cc1Cl)c1cc2cccnn2n1 8.91 µM [inhibitor, full curve, poor fit]
COc1c(Cl)cc(C(=O)Nc2cc(-c3nc4ccccc4[nH]3)ccc2C)cc1Cl 39.8 µM [inhibitor, single point]
COCCOCc1nc(C2CCCN2C(=O)NCc2ccc(OC)cc2)no1 (stereo not given) 39.8 µM [inhibitor, single point]
C[C@H]1[C@@H]2[C@@H](O)C([C@H](C)C(=O)NC3CCCCC3)CC[C@@]2(C)CC[C@@H]1NC(=O)c1ccccn1 (stereo not given in full) 35.5 µM [inhibitor, single point]
CC1=C[C@@H](CNC(=O)C2CC2)[C@H](C(C)C)C[C@H]1Cc1nc2ccccc2n1C 11.2 µM [inhibitor, full curve, poor fit]
O=C(NC1CCN(c2cc(-c3ccc(F)cc3)[nH]n2)C1)c1ccccc1F (stereo not given) 1.26 µM [inhibitor, partial curve, poor fit]
COc1cccc(N2CCN(c3nc(C(=O)NCc4cccnc4)cs3)CC2)c1 31.6 µM [inhibitor, single point]
CC(C)c1ccc(C2CC(=O)Nc3cc4c(cc32)OCCO4)cc1 (stereo not given) 2.24 µM [inhibitor, full curve, poor fit]
O=C1OCC2=C1C(c1ccc(Cl)cc1)NC(=O)N2CC(=O)N1CCC(Cc2ccccc2)CC1 (stereo not given) 8.91 µM [inhibitor, partial curve, poor fit]
Cc1ccccc1Cn1ccn(-c2ccc(F)c(F)c2)c(=O)c1=O 39.8 µM [inhibitor, single point]
Cc1ccc(N2C(=O)CS(=O)(=O)C23C(=O)Nc2ccccc23)cc1C (stereo not given) 5.01 µM [inhibitor, partial curve, poor fit]
CCNC(=O)N1CC[C@H]2CC(=O)N(CCc3cccc(OC)c3OC)CC[C@H]2C1 2.82 µM [inhibitor, partial curve, poor fit]
CCNC(=O)N[C@H]1[C@H](O)[C@@H](N2CCN(C(C)=O)CC2)[C@@H]2OC[C@H]1O2 3.98 µM [inhibitor, full curve, poor fit]
C#CCNC(=O)C1=NOC2CN(C(=O)C3CC3)CC12 (stereo not given) 2.51 µM [inhibitor, full curve, poor fit]
Cc1ccc(Cn2ccnc2SCC(=O)NCc2ccccc2)cc1 7.08 µM [inhibitor, single point]
Cn1nc(C(=O)N2CCOc3ccc(CCC(N)=O)cc3C2)c2ccccc21 28.2 µM [inhibitor, single point]
O=C(NCCSc1ccccc1)[C@H]1CNC[C@@H](C(=O)N2CCOCC2)C1 6.31 µM [inhibitor, full curve, poor fit]
CSc1nn(Cc2ccc(F)cc2)c(N(C(C)=O)C(C)=O)c1S(=O)(=O)c1ccccc1 22.4 µM [inhibitor, single point]
COc1ccc(Cn2c(=O)c(C(=O)N3CCN(C(=O)Nc4ccccc4)CC3)nc3cccnc32)cc1 35.5 µM [inhibitor, partial curve, poor fit]
Cc1ccc(CN2CCC3(CC2)COCCN3C(=O)OCc2ccccc2)o1 56.2 µM [inhibitor, single point]
O=C(C1CC1)N(C1CCOCC1)C1CCN(S(=O)(=O)c2ccc3c(c2)CCCC3)CC1 14.1 µM [inhibitor, single point]
COc1ccc(OC)c(CCNC(=O)c2nc(-c3ccc(Cl)cc3)n3c2CCCCC3)c1 39.8 µM [inhibitor, single point]
O=C(NCCCc1ccccc1)C1CN(C2CCCC2)C(=O)N1 (stereo not given) 7.08 µM [inhibitor, full curve]
O=c1c2c(nc3cc[nH]n13)CCN(S(=O)(=O)c1ccc3c(c1)CCC3)C2 3.16 µM [inhibitor, single point]
OCC1CN(c2ccncn2)CC12CCN(CC1CCCCC1)CC2 (stereo not given) 39.8 µM [inhibitor, single point]
